These results are taken from article PMC4336329 (PLoS ONE, 2015).

Molecules are shown by their SMILES. In all, about 310,000 compounds went through this assay and about 14,000 (4.5%) showed an effect of 50% or more. Effects have a minus sign here. This is one part of the list.
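Further: peak tail current of the secondary pulse compared with the same well before compound.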

Sequence of human ether-à-go-go-related gene (hERG) potassium channel (Q12809 whole entry, looked up): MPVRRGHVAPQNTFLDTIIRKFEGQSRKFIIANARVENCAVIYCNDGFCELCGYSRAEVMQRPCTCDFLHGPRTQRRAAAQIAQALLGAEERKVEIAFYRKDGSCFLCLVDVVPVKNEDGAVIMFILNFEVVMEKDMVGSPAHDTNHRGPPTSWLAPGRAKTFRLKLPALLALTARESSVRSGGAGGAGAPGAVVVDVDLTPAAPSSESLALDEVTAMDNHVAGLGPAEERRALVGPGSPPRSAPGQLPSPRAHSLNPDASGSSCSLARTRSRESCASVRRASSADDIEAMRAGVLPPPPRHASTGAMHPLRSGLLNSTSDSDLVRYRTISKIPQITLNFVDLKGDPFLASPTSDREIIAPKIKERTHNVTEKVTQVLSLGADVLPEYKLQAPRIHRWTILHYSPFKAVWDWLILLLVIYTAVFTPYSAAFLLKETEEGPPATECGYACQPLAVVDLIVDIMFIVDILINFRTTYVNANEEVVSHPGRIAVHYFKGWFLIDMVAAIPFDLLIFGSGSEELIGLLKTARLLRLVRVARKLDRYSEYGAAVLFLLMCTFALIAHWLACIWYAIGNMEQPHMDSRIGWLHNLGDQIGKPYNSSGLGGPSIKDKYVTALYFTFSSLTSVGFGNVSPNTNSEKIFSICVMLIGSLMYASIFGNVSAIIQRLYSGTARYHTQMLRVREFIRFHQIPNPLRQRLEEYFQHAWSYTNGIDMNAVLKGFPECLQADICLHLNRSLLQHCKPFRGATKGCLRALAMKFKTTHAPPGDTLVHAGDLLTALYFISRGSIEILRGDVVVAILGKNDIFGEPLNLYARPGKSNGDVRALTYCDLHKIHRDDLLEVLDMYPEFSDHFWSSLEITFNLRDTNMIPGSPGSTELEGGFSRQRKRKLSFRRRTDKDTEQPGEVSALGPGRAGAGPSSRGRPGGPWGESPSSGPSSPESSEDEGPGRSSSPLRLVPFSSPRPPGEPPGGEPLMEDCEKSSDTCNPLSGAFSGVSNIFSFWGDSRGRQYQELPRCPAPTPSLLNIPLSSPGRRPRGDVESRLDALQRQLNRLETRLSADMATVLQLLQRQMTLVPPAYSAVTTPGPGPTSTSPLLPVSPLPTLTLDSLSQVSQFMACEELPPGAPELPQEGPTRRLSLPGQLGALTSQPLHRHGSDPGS

The assay has as its target human ether-à-go-go-related gene (hERG) potassium channel (human, UniProt Q12809). The assay is described as follows: primary screen, population patch clamp on CHO cells stably expressing hERG.
Regarding `Cn1nnnc1SCC(=O)Nc1nc(-c2ccccc2)c(-c2ccccc2)o1`, the “hERG current change (%, negative = inhibition) at 10uM” value came out at 2.83%.

For the compound `COC(=O)C(C)N(C#N)c1nc(C)cc(C)n1` (stereo not shown), the “hERG current change (%, negative = inhibition) at 10uM” value amounted to 8.78%. With `CCN1C(=O)C(=O)N(CC(=O)NC(C)CCc2ccccc2)C1=O` (stereo not shown) the figure was -8.47%; with `CCCC(C(=O)Nc1ccc(S(=O)(=O)N2CCCC2)cc1)c1ccccc1` (stereo not shown), 3.52%. In the case of `O=C(CSc1nc(=O)n(Cc2ccccn2)c2c1CCC2)Nc1ccc(F)cc1F`, the “hERG current change (%, negative = inhibition) at 10uM” value is reported as -23.7%. With `O=C(Nc1ccc(N2CCOCC2)cc1)Nc1cnsn1` the figure was -0.748%. Turning to `COCCN1Cc2cccc(C(=O)Nc3cccc(C)c3C)c2C1=O`, the “hERG current change (%, negative = inhibition) at 10uM” value is -16.3%. `O=C(NN1C(=O)c2ccccc2C1=O)C1CCCCC1`: the “hERG current change (%, negative = inhibition) at 10uM” value was -3.21%.

Consider `Cc1ccc(NC(=O)CSc2nccn2Cc2ccco2)c(C)c1`, for which the “hERG current change (%, negative = inhibition) at 10uM” value is 8.72%. With `Cc1ccc(S(=O)(=O)Nc2c(O)c3ccccc3oc2=O)cc1C` the figure was 23.9%; with `COc1ccc2c(c1OC)C(=O)N1N=C(c3ccccc3)CC21` (stereo not shown), 0.84%; with `CC(C)CNc1cc(=O)n(C)c(=O)n1C`, 14.4%. To `O=C(NCC1CCCO1)C(c1ccncc1)N(Cc1ccc(F)cc1)C(=O)CN1C(=O)c2ccccc2S1(=O)=O` (stereo not shown) belongs -58.3%. To `O=c1cc(CN2CCN(c3ccccc3)CC2)nc2scc(-c3ccccc3)n12` belongs -7.83%.

Regarding `CN(CC(=O)NC(=O)NCc1ccccc1)Cc1cccc(Cl)c1Cl`, the “hERG current change (%, negative = inhibition) at 10uM” value is given as -7.9%. As for `CCS(=O)(=O)Nc1ccc2c(c1)N(C(C)=O)c1ccccc1CC2`, the “hERG current change (%, negative = inhibition) at 10uM” value was -6.43%. In the case of `CCCOc1ccc(C2=CC(=O)C[C@H](c3ccc(OC)cc3)C2)cc1`, the “hERG current change (%, negative = inhibition) at 10uM” value is recorded as 21.7%. `CSc1nnc(C)c(=O)n1COC(=O)COc1ccccc1`: the “hERG current change (%, negative = inhibition) at 10uM” value was 12.1%. For the compound `O=C(Cn1[nH]c(=O)c2ccccc2c1=O)OCC(=O)c1ccc(F)cc1`, the “hERG current change (%, negative = inhibition) at 10uM” value is given as 24.6%. Regarding `COC(=O)C(CC(C)C)NC(=O)c1ccc(F)cc1` (stereo not shown), the “hERG current change (%, negative = inhibition) at 10uM” value is reported as 13.8%. With `CN(C)S(=O)(=O)c1cccc(C(=O)OCC(=O)Nc2ccccc2OC(F)F)c1` the figure was 8.35%; with `O=C(Nc1ccccc1)N1CCC(n2c(=O)[nH]c3ccccc32)CC1`, -8.18%; with `CCCN(CCC)S(=O)(=O)c1cccc(-c2csc(C)n2)c1`, -0.748%. With `CCOC(=O)C1=C(COC(=O)/C=C/c2cccc(OC)c2)NC(=O)NC1C` (stereo not shown) the figure was -5.72%. Regarding `C/C(=C\c1ccccc1)C(=O)n1nnc2ccccc21`, the “hERG current change (%, negative = inhibition) at 10uM” value worked out at 6.32%.
